Measured values from PubChem BioAssay AID1963841 (Molecular Pharmacology Branch, DTP, NCI, 2024).
The source holds more than one record for some entries. They are shown here; other results are not. The source may hold further records. Results that share an entry are repeated measurements in other runs, samples, wells, individuals or studies. Marks such as (2×) give the number of equal values in this list. A date in brackets names the month of the test.

System: 439559-082-T-J2-PDC spheroid viability
Assay: Anticancer human tumor 439559-082-T-J2-PDC patient-derived colon adenocarcinoma cell line growth inhibition [POLQ]
Settings: spheroids with HUVEC and MSC; for viability, T/C: stronger effect = lower value
Description: Multicellular complex tumor spheroid response to Polymerase (POL) inhibitors (novobiocin, ART-558, RP6685) in combination with a variety of drugs and investigational agents in selected tumor cell lines
The POL inhibitors (novobiocin, ART-558, and RP6685) were evaluated both individually and in combination with standard of care and investigational anticancer small molecules within a complex spheroid model of solid tumors. . Complex spheroids include a stromal component modeled by human endothelial cells (HUVEC) and fibroblasts modeled by human mesenchymal stem cells (MSCs). The concentration ranges selected for each drug and investigational agent were based upon clinically achievable concentrations if the clinical Cmax of the agent was known.
Compounds. The drugs and investigational agents: novobiocin (NSC847541), ART-558 (NSC835418), RP-6685 (NSC848927), peposertib (NSC802822), ceralasertib (NSC780249), elimusertib (NSC800525), camonsertib (NSC841442), AZD-1390 (NSC803789), olaparib (NSC753686), talazoparib (NSC767125), rucaparib (NSC756644), sotorasib (NSC818433), MRTX-1133 (NSC836407), SN-38 (NSC673596), topotecan (NSC609699), epotoside (NSC141540), doxorubicin (NSC123127), gemcitabine (NSC613327), 5-fluorouracil (NSC19893), paclitaxel (NSC125973), vemurafenib (NSC761431), MSA-2 (NSC828583), SN-011 (NSC837082), adavosertib (NSC754352), prexasertib (NSC758257), carboplatin (NSC241240) and oxaliplatin (NSC266046), were obtained from the National Cancer Institute (NCI) Developmental Therapeutics Program Chemical Repository (21). The FDA-approved anticancer drug set is available from the Developmental Therapeutics Program at https://dtp.cancer.gov/organization/dscb/obtaining/. […] The stock solutions were prepared in dimethyl sulfoxide (DMSO, Sigma-Aldrich, St. Louis, MO, cat. D2650), except for the platinum compounds which were prepared in saline (Quality Biological, Gaithersburg, MD, cat. 114-055-101), at 800-fold the tested concentration and stored at -70 degrees C prior to their use. All drugs and investigational agents were tested over a range starting from a high concentration at or near the clinical Cmax and decreasing in half-log increments. If the clinical Cmax for an agent had not been determined, the highest concentration tested was 10 microM, except for SN-38, which was tested at a high concentration of 1 microM.
Cell Culture. All cells were maintained in an incubator at 37 degrees C and 5% CO2 with 95% humidity. The PDC lines were cultured according to standard operating procedures established by the NCI PDMR (https://pdmr.cancer.gov). Table 3 of the manuscript, lists the cell lines along with the number of the three cell types plated to form the mct-spheroids and media for tumor cell growth. After thawing, all PDC lines, except 997537-175-T-J1-PDC and 415267-285-R-J2-PDC, were cultured in Matrigel-coated flasks prepared with a working solution of 1X Ham's F-12 nutrient mix, without supplementation (Thermo Fisher Scientific, cat. 11765054), 100 U/mL penicillin-streptomycin (Thermo Fisher Scientific, cat. 15140122), and 2.5% Matrigel (Corning Inc., Corning, NY, cat. 354248) for the first three passages. The two PDC lines 997537-175-T-J1-PDC and 415267-285-R-J2-PDC were cultured on uncoated flasks. The 857933-349-R-J2-PDC line was cultured in 6C/Colon 1B media containing advanced DMEM/F-12 (Thermo Fisher Scientific, cat. 12634028), 10 mM HEPES (Thermo Fisher Scientific, cat. 15630080), 1X GlutaMAX supplement (Thermo Fisher Scientific, cat. 35050061), 0.1 mg/mL primocin (InvivoGen, San Diego, CA, cat. ant-pm-2), 10% defined fetal bovine serum, heat inactivated (HyClone Laboratories Inc., Logan, UT, cat. SH30070.03HI), 50% L-WRN conditioned media (ATCC, cat. CRL-3276), 1.25 mM N-Acetyl-L-cysteine (Sigma-Aldrich, cat. A9165), 10 mM nicotinamide (Sigma-Aldrich, cat. N0636), 1X B-27 supplement (Thermo Fisher Scientific, cat. 17504044), 1X N-2 supplement (Thermo Fisher Scientific, cat. […]
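Note: spheroids exposed to compounds for seven days before readout.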
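Throughout, for viability, T/C: 100% = DMSO vehicle control viability.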

Structure (SMILES) | viability, T/C (compound alone 3.16 µM) | viability, T/C (compound alone 0.1 µM) | viability, T/C (compound alone 0.316 µM) | viability, T/C (compound alone 1 µM) | viability, T/C (compound alone 10 µM) | further results
CC1COCCN1c1cc(-c2ccnn2C)c2ccnc(-c3ccn[nH]3)c2n1 (stereo not drawn) | 23.5%, 54.5% [2023-11] and 55.6% [2023-12] | – | – | – | – | IC50 (compound alone): 277 nM, 505 nM [2023-11] and > 10 µM [2023-12]
O=C(c1cc(Cc2n[nH]c(=O)c3ccccc23)ccc1F)N1CCN(C(=O)C2CC2)CC1 | 71%, 95.7% [2023-11] and 102% [2023-12] | 55%, 94% [2023-11] and 89.9% [2023-12] | 59.7%, 92% [2023-11] and 93.6% [2023-12] | 65.6%, 102% [2023-11] and 102% [2023-12] | 63%, 103% [2023-11] and 93% [2023-12] | –
CCCS(=O)(=O)Nc1ccc(F)c(C(=O)c2c[nH]c3ncc(-c4ccc(Cl)cc4)cc23)c1F | 96.6% [2023-11] and 106%, 72.2% [2023-12] | 96.9% [2023-11] and 98.4%, 70.7% [2023-12] | – | – | 68.3% [2023-11] and 84.5%, 43.6% [2023-12] | –
CC(=O)O[C@H]1C(=O)[C@@]2(C)[C@H]([C@H](OC(=O)c3ccccc3)[C@]3(O)C[C@H](OC(=O)[C@H](O)[C@@H](NC(=O)c4ccccc4)c4ccccc4)C(C)=C1C3(C)C)[C@]1(OC(C)=O)CO[C@@H]1C[C@@H]2O | – | – | – | – | – | viability, T/C (compound alone 0.00949 µM): 84.1% [2023-11] and 96.4%, 58.7% [2023-12]; viability, T/C (compound alone 0.03 µM): 78.7% [2023-11] and 77.3%, 52.2% [2023-12]
CC(C)n1c(=O)n(C)c2cnc3cc(F)c(-c4ccc(OCCCN5CCCCC5)nc4)cc3c21 | – | 56%, 107% [2023-11] and 105% [2023-12] | 71.7%, 107% [2023-11] and 100% [2023-12] | 91.3%, 120% [2023-11] and 106% [2023-12] | 60.8%, 93.4% [2023-11] and 99.6% [2023-12] | viability, T/C (compound alone 0.0316 µM): 59.3%, 98.5% [2023-11] and 111% [2023-12]
Nc1ccc(C#CCN(C(=O)Cc2ncc(C(F)(F)F)cc2C(F)(F)F)c2ccc(F)cc2)nn1 | – | – | – | – | 106, 96.8 (2×), 92.1, 104 (2×), 116, 99.8, 102, 89.5, 93.2, 95.8, 96.9% | –
